Experimental data taken from article PMC4336329 (PLoS ONE, 2015).
About 14,000 (4.5%) of roughly 310,000 compounds showed an effect of 50% or more. The effect is printed as a negative number. The list shows a part of the results.

Target: human ether-à-go-go-related gene (hERG) potassium channel (human, UniProt Q12809)
Experiment: primary screen, population patch clamp on CHO cells stably expressing hERG
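Note: peak tail current of the secondary pulse compared with the same well before compound.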

human ether-à-go-go-related gene (hERG) potassium channel, sequence (Q12809 whole entry, looked up): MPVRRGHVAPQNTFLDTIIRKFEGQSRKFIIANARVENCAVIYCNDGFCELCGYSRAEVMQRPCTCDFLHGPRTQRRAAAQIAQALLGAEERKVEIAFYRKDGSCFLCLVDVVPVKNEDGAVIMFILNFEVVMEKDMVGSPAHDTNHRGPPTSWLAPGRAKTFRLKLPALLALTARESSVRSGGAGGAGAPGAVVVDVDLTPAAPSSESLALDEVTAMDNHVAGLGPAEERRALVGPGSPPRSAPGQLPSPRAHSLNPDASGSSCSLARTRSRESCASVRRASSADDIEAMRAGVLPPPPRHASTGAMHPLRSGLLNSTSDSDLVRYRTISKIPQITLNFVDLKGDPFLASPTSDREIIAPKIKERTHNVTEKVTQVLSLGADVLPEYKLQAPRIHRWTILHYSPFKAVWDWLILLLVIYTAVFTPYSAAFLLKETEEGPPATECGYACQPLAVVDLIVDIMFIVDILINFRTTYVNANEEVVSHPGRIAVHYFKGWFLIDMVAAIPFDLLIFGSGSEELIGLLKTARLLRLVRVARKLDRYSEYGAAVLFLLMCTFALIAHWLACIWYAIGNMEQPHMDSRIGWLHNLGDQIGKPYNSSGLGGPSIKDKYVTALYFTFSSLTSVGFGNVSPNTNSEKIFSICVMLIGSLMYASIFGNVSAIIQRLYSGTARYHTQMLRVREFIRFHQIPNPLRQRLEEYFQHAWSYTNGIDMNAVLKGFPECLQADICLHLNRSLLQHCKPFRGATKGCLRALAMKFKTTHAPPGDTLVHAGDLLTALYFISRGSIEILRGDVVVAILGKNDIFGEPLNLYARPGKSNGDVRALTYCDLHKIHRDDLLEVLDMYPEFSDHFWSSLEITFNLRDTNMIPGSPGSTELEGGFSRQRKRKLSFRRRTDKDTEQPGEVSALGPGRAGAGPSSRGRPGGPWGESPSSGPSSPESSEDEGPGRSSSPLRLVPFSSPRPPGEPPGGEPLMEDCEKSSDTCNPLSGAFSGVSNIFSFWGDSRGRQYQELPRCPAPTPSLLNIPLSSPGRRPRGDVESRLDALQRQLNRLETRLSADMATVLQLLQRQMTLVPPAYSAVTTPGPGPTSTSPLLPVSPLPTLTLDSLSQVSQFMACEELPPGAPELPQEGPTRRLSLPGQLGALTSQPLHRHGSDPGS

SMILES	hERG current change (%, negative = inhibition) at 10uM
COc1ccc(NC(=O)Cc2ccc(Cl)cc2)cc1NC(=O)c1ccco1	-20.7%
N#Cc1c(NC(=O)c2cccc(S(=O)(=O)Nc3ccc(C(=O)O)cc3)c2)sc2c1CCCC2	-3.45%
CCc1ccc(/C=N/N2CCN(c3ccccn3)CC2)cc1	-12.3%
CC(=O)Nc1cccc(OCCCNS(=O)(=O)c2ccc(C#N)cc2)c1	-6.74%
COc1ccc(CC(=O)NCc2ccc(F)cc2)cc1S(=O)(=O)N1CCOCC1	-8.29%
COc1ccc(Br)cc1S(=O)(=O)NCc1ccccn1	0.508%
COc1ccc(S(=O)(=O)N2CC3C4C=CC(C4)C3C2)cc1 (centres unmarked)	-7.85%
CSc1ncc2c(=O)[nH]c(-c3ccccc3)nc2n1	11.6%
CCOC(=O)CN(C(=O)COc1nc(-c2ccccc2)cc(C)c1C#N)c1ccc(C)cc1	2.64%
CC(CSc1nnnn1-c1ccccc1)Cn1c(N2CCCC2)nc2c1c(=O)[nH]c(=O)n2C (centres unmarked)	-45.1%
O=C(O)CCSc1ccccn1	29.3%
Cc1ccc(NC(=O)C2(S(=O)(=O)c3ccc(C)cc3)CC2)cc1	1.48%
Cc1csc(NC(=O)CSc2ccc([N+](=O)[O-])cn2)n1	-16.1%
Cc1cc(NC(=O)c2ccc(NC(=O)C(C)Oc3ccccc3)cc2)no1 (centres unmarked)	17.8%
CC(C)(C)Cc1cc(N)on1	2.27%
O=C(Oc1ccc(Br)cc1C(=S)N1CCOCC1)c1ccccc1	6.19%
CCC(=O)Nc1cc(C(=O)N2CCC3(CC2)OCCO3)ccc1S(=O)(=O)c1ccc(C)cc1	-3.74%
Cc1sc2nc(SCC(=O)N3CCCC3)[nH]c(=O)c2c1C	-12.3%
Cc1noc(C)c1S(=O)(=O)N1CCC(C(=O)NCCN2CCC(C)CC2)CC1	-2.96%
Cc1cccc(C)c1NC(=O)CN(C)CC(=O)Nc1ccc(F)c(Cl)c1	-9.4%
CCCCC(=O)Nc1ccc(C(=O)Nc2nnc(COC)s2)cc1	-0.609%
COc1ccc(CNC(=O)CSc2cccc3cccnc23)cc1	4.1%

SMILES	hERG current change (%, negative = inhibition) at 10uM
C[C@H](OC(=O)NCc1ccc(C(F)(F)F)cc1)[C@@H]1O[C@@]2(C)CCC[C@@H]1O2	21.2%
COc1ccc(C2CC(c3cccc(Cl)c3)n3nc(N)nc3N2)cc1 (centres unmarked)	-27.2%
COc1ccc(CN/C(C)=C(/C#N)C(N)=O)cc1OC	-10.1%
Cc1cc(SCC(=O)N/N=C/c2ccc(O)c(O)c2)c(C)cc1Br	4.97%
CN(C)S(=O)(=O)c1ccc(NC(=O)COC(=O)C2COc3ccccc3O2)cc1 (centres unmarked)	-2.59%
Cc1cc(C)c(S(=O)(=O)NCc2ccccn2)c(C)c1	3.13%
NC(=O)CN1C(=O)C(=O)N(Cc2ccccc2)C1=O	13%
N#CC1=C(N)C2=C(N3CCCCC3)CCCC2C1(C#N)C#N (centres unmarked)	6.05%
COc1ccc(CCC(=O)NCc2cn3ccsc3n2)cc1	13%
COc1cc(C(=O)NCCCN2CCCC2=O)cc(Br)c1OCc1ccccc1	-50.7%
COc1ccc(N2CCN(S(=O)(=O)c3ccc4c(c3)CC(C)N4C(=O)C3CC3)CC2)cc1 (centres unmarked)	18.5%
CCN(CC)S(=O)(=O)c1ccc(S(=O)(=O)Nc2ccc(C(=O)N3CCCC3)cc2)cc1	-8.63%
COc1ccccc1Nc1nc(N)nc(CN2CCC(C)CC2)n1	-67.5%
Cc1ccc(CN(Cc2cc3cccc(C)c3[nH]c2=O)C(=O)N(C)C)cc1	-9.44%
Cc1ccc(CCN2C(=O)c3ccccc3C2C(=O)NCc2cccnc2)cc1 (centres unmarked)	-6.79%
Cc1cccc(C)c1NC(=O)CN(C)C(=O)c1cccc(NS(=O)(=O)c2ccccc2)c1	-4.78%
CC(CCC(=O)O)C1CCC2C3CCC4C[C@H](O)CCC4(C)C3CC(=O)C12C (some centres unmarked)	17.7%
CCCc1cc(=O)oc2cc(OCC(=O)NCCc3c[nH]c4ccccc34)ccc12	-14.4%
CCOc1ccccc1-n1c(SCC(=O)NC(C)(C)C)nnc1-c1ccoc1C	1.75%
CCOc1ccc(C(=O)COC(=O)CN2C(=O)NC3(CCCCC3C)C2=O)cc1 (centres unmarked)	-42.7%
O=C(CC1(c2ccc(Cl)cc2)C2CC3CC(C2)CC1C3)NCCO (centres unmarked)	-7.17%
Nc1c(-c2ccc(Cl)cc2)cnc2c(-c3ccccc3)cnn12	29.1%
